Whole data set: some 5,400 compounds, median “IFI” near 2, cut for the highest 2% near 22. The list shows a part of the results.
Experiment: NOVARTIS: Inhibition Frequency Index (IFI) - the number of HTS assays where a compound showed > 50% inhibition/induction, expressed as a percentage of the number of assays in which the compound was tested.
Format: functional

| SMILES | IFI [%] |
| --- | --- |
| Cc1ccc(S(=O)(=O)NC(Cc2ccccc2)C(=O)N2CCC(C3CCN(C(=O)c4ccc([N+](=O)[O-])o4)CC3)CC2)cc1 (stereo not drawn) | 7.69 |
| CC(C)CCn1nc(C(=O)N2CCOCC2)c2c1CCN(C(=O)c1ccc(N3CCOCC3)cc1)C2 | 2.56 |
| CCc1c(C)nc2cc(-c3cc(OC)cc(OC)c3)nn2c1NCCCn1ccnc1 | 0 |
| COCCOC(=O)C1=C(C)NC2=C(C(=O)CC(c3ccc(OC)c(OC)c3)C2)C1c1ccccc1F (stereo not drawn) | 2.35 |
| CCCn1c(SCCNC(=O)NCC)nc(-c2ccccc2)c1-c1ccccc1 | 0 |
| CCN(CC)CCCNC(=S)N(Cc1cc2ccc(OC)cc2[nH]c1=O)C1CCCCC1 | 3.57 |
| Cc1c(Cl)cccc1NC(=S)N(CCCN(C)c1ccccc1)Cc1cccn1Cc1ccc(Cl)cc1 | 6.45 |
| CC(C)COc1ccc(C(=O)N/C(=C/c2ccccc2)C(N)=O)cc1 | 0 |
| NCCNc1cc(-c2ccccc2)nc2ccccc12 | 4.42 |
| CCc1cccc(NC(=S)N2CCCC2c2ccccc2C(F)(F)F)c1 (stereo not drawn) | 3.7 |
| Cc1cccc(CCNc2cc(C)nc3nc(C)nn23)c1 | 0 |
| c1csc(CN2CCc3nc(N4CCCCC4)sc3C2)c1 | 6.94 |
| CCOc1ccc(NC(=O)CSc2nncc(O)n2)cc1 | 7.69 |
| CCCOC(=O)C1=C(C)NC2=C(C(=O)CC(c3ccc(OC)c(OC)c3)C2)C1c1ccc(O)c(OCC)c1 (stereo not drawn) | 0 |
| Oc1ccc(CN2CCCCC2)nc1-c1ccccc1 | 3.03 |
| Cn1ccnc1C1CCCCN1C(=O)c1cc(COc2ccc(F)cc2Cl)on1 (stereo not drawn) | 0 |
| CCC(C)(C)n1nnnc1C(c1cc2ccc(C)cc2[nH]c1=O)N1CCN(c2ccccc2)CC1 (stereo not drawn) | 1.8 |
| COc1ccc2c(c1)N(C(=O)CSc1nc3ccccc3o1)C(C)(C)c1ssc(=S)c1-2 | 1.15 |
| N=C(N)c1ccc(OCCCOc2ccc(C(=N)N)cc2)cc1 | 5.56 |
| CCn1ncc(CN2CCC(C(=O)Nc3ccccc3-c3cccc(OC)c3)CC2)c1C | 0 |
| Cc1ccc(NC(=O)c2sc3nc4c(c(-c5ccc(C)cc5)c3c2N)CCC4)cc1 | 7.41 |
| O=c1c2ccccc2[nH]c2ccc(I)cc12 | 0 |
| Cc1ccc(NC(=O)c2ccc(NCCCN3CCCCCC3)c([N+](=O)[O-])c2)cc1F | 0 |
| CCN(CC)c1nc(NN=Cc2cccc([N+](=O)[O-])c2OC)nc(Nc2ccccc2)n1 | 5.2 |
| CCOC(=O)C1=C(C)NC2=C(C(=O)CC(c3ccc(OC)c(OC)c3)C2)C1c1c(F)cccc1Cl (stereo not drawn) | 0 |

| SMILES | IFI [%] |
| --- | --- |
| O=C1CSC(=NN=Cc2cccnc2)N1c1ccccc1 | 0 |
| CC(=O)Nc1nc(C)c(-c2csc(Nc3ccc(C)cc3)n2)s1 | 3.33 |
| COc1cccc2c1OCC(CN1CCC(C(=O)Nc3ccc(-n4cccn4)cc3)CC1)=C2 | 0 |
| COc1cccc(CCN2Cc3ccc(C(=O)NC(C)C)cc3N=C2c2cccnc2)c1 | 1.22 |
| CCc1nc2nc(C)cc(NCCc3cccc(C)c3)n2n1 | 0 |
| Cc1noc(-c2ccc(O)cc2O)c1-c1ccc2c(c1)OCCO2 | 6.02 |
| CCN1C(=Cc2sc3ccc(Cl)cc3[n+]2CC)C=Cc2cc(OC)ccc21 | 15.4 |
| Cc1cc2nc3ccc(N(C)C)cc3[n+](-c3ccccc3)c2cc1N | 9.52 |
| OC(CCNC1CCCCC1)COc1cccc2ccccc12 (stereo not drawn) | 0 |
| Oc1ccc(-c2ccccc2)cc1CN1CCC(c2ccccc2)CC1 | 2 |
| OCCSc1nc(-c2ccccc2)nc2ccc(F)cc12 | 1.56 |
| COC(=O)C1=C(C)NC2=C(C(=O)CC(c3ccc(OC)c(OC)c3)C2)C1c1cccc(O)c1 (stereo not drawn) | 0 |
| COc1ccccc1NC(=O)N(Cc1ccccc1)C(C)c1nc2ccccc2c(=O)n1-c1cc(C)ccc1OC (stereo not drawn) | 2.5 |
| CCN1/C(=C/c2sc3ccccc3[n+]2CC)Sc2ccccc21 | 21.9 |
| CC(O)c1ccc(NC(=O)c2cnn3c2NC(c2ccco2)CC3C(F)(F)F)cc1 (stereo not drawn) | 0 |
| CCc1ccc2[nH]c(=O)c(CN(CCCN(CC)CC)C(=S)NCCCN(C)C)cc2c1 | 2.73 |
| COc1ccc(CCN(C(=S)Nc2ccccc2)C2CC(=O)N(c3ccc(F)cc3)C2=O)cc1OC (stereo not drawn) | 0 |
| O=C1CN(C(=O)CCC2CCCC2)C(c2ccc(F)cc2)c2cc(F)ccc2N1 (stereo not drawn) | 2.63 |
| COc1ccc(C2C(C(=O)c3ccccc3)=C(O)C(=O)N2c2cccc(Cl)c2)c(OC)c1 (stereo not drawn) | 0 |
| CCCCOc1ccc(C(O)C(CN2CCCCC2)c2ccccc2)cc1 (stereo not drawn) | 0 |
| CCCCCc1ccc(-c2cn3nc(CCCCC)sc3n2)cc1 | 0 |
| Cc1ccc2ccc3ccc(C)nc3c2n1 | 17.1 |
| COc1ccc(OC)c(-c2ccc(O)c(CNCC3(O)CCCCC3)c2)c1 | 1.71 |
| CCOc1ccc(NC(=O)CSc2nc3cc(OCC)ccc3[nH]2)cc1 | 0 |
| CCOC(=O)c1cnn(-c2ccnc3cc(Cl)ccc23)c1CNC(C)c1cccs1 (stereo not drawn) | 2.63 |

| SMILES | IFI [%] |
| --- | --- |
| COc1cc(C2CC(=O)NC(C)=C2C(=O)OC(C)C)c(OC)cc1Br (stereo not drawn) | 0 |
| N#Cc1c2c(c(N3CCN(C(c4ccccc4)c4ccccc4)CC3)n3c1nc1ccccc13)CCC2 | 0 |
| COc1ccc(-c2c[n+](Cc3ccccc3Cl)c3n2CCC3)cc1 | 2.44 |
| CCOC(=O)c1c(-c2ccccc2)oc2c1C(=O)c1ccccc1C2=O | 1.47 |
| Cc1cc(C)n(CC(O)Cn2c3ccc(Br)cc3c3cc(Br)ccc32)n1 (stereo not drawn) | 2.04 |
| O=C(Nc1ccc(Oc2ccccc2)cc1)NC(CN1CCCC1)c1ccccc1 (stereo not drawn) | 7.04 |
| O=C(CSc1ccc2nnc(-c3cccs3)n2n1)Nc1ccccc1 | 0 |
| Cc1nc2c(-c3ccccc3)c(C)nn2c(C)c1CC(=O)NCc1ccccn1 | 0 |
| COc1cc(OC)cc(C(=O)Oc2ccccc2-c2nc3cc(C)ccn3c2NC(C)(C)CC(C)(C)C)c1 | 2.8 |
| O=C(Nc1ccc(C2=NCCN2)cc1)c1cccc2c(C(=O)Nc3ccc(C4=NCCN4)cc3)cccc12 | 1.68 |
| CCCCc1ccc(C(=O)N(C)CCCNc2ccnc3cc(Cl)ccc23)cc1 | 3.16 |
| CC[N+]1(CCOc2ccc(C34CC5CC(CC(C5)C3)C4)cc2)CCCCC1 | 7.69 |
| CCOC(=O)C1CCN(C(=O)CN2C(=O)c3ccccc3C2c2c[nH]c3ccccc23)CC1 (stereo not drawn) | 6.67 |
| COC(=O)C1=C(C)NC2=C(C(=O)CC(c3ccc(OC)c(OC)c3)C2)C1c1cccs1 (stereo not drawn) | 0 |
| CCCCN1C=Nc2cc(C(=O)NCc3ccc(OC)cc3)ccc2C1 | 1.21 |
| O=C(Cn1c2ccccc2c(=O)c2cc([N+](=O)[O-])ccc21)Nc1cccc(Cl)c1 | 1.15 |
| C/C(=C\c1ccccc1)CN(C(=O)c1ccc(C(C)(C)C)cc1)C(C)C | 2.15 |
| COc1ccc(CCNC2(Cc3ccccc3)CC(C)N(C)CC2C)cc1OC (stereo not drawn) | 5.46 |
| CCCCN(CCCC)CCCNc1ncnc2c1[nH]c1ccc(C)cc12 | 2.5 |
| Cc1cc(C)nc(/N=C(\N)Nc2ccccc2O)n1 | 3 |
| COc1ccc(NC(=O)C2c3ccccc3C(=O)N(CC(C)C)C2c2cccs2)cc1OC (stereo not drawn) | 3.03 |
| CCCCc1ccc(C(=O)N(CC(=O)Nc2cc(C(C)(C)C)nn2-c2ccc(Cl)cc2)C(C)C)cc1 | 1.91 |
| Cc1ccc([N+](=O)[O-])cc1-c1ccc(/C=C2/SC(=S)N(CC(=O)O)C2=O)o1 | 0 |
| Cc1cc(N2CCN(C/C=C/c3ccccc3)CC2)n2c(nc3ccccc32)c1C#N | 2.78 |
| CCCCCN(C(=O)c1cccc(OC)c1)C(CC)c1nc2ccccc2c(=O)n1-c1ccccc1OC (stereo not drawn) | 1.96 |

| SMILES | IFI [%] |
| --- | --- |
| Cc1ccc(/C=C2/SC(=Nc3ccccc3)NC2=O)c(C)c1 | 3.41 |
| COc1cc(OC)cc(N2C(=O)N(Cc3ccc(C(C)(C)C)cc3)c3ccccc3S2(=O)=O)c1 | 0 |
| CC(C)c1cccc(C(C)C)c1NC(=O)N(Cc1ccccc1)C(C)c1nc2ccccc2c(=O)n1-c1ccc(Br)cc1 (stereo not drawn) | 5.56 |
| Oc1ccc2cc(-c3nc4ccccc4[nH]3)c3nc4ccccc4n3c2c1 | 0 |
| CC(=NNC(=N)N)c1ccc(C)cc1 | 0 |
| Cc1ccc(C(=O)NCCNC(=O)CN2CCOCC2)cc1 | 0 |
| COc1ccc(C2CC(=O)C3=C(C2)NC(C)=C(C(=O)OC2CCCC2)C3c2ccc(OC)cc2)cc1 (stereo not drawn) | 7.41 |
| CCN1/C(=C/c2cccc[n+]2C)Sc2ccc(OC)cc21 | 15.4 |
| Cc1c(Cl)cccc1NC(=O)CCC(=O)NNC(=O)c1ccccc1 | 0 |
| O=C(CC(=NNc1nc(NN=C(CC(=O)C(F)(F)F)C(F)(F)F)nc(N(c2ccccc2)c2ccccc2)n1)C(F)(F)F)C(F)(F)F | 0 |
| O=C1C(Nc2ccccc2)=C(n2nnc3ccccc32)C(=O)c2ccccc21 | 9.09 |
| O=C(Nc1ccc(-n2cccn2)cc1)C1CCN(C/C=C/c2ccccc2)CC1 | 0 |
| Cc1ccn2c(NC(C)(C)CC(C)(C)C)c(-c3ccccc3OC(=O)c3cccc(Cl)c3)nc2c1 | 3.74 |
| COc1ccccc1-c1nnc(Nc2nc3cc4c(cc3s2)OCO4)o1 | 0 |
| COc1ccccc1N1C(=N)S/C(=C\c2ccc(OCc3ccccc3F)cc2)C1=O | 2.33 |
| CCCCNC(=O)c1ccc2c(c1)N=C(CC(C)c1ccccc1)N(C1CCCCC1)C2 (stereo not drawn) | 2.47 |
| CCCCN(C(=O)Nc1c(C(C)C)cccc1C(C)C)C(CC)c1nc2ccccc2c(=O)n1-c1cccc(Cl)c1 (stereo not drawn) | 1.92 |
| COc1ccc(CCNC(=O)CN(c2ccc(OC)c(OC)c2)S(=O)(=O)c2ccc(C)cc2)cc1OC | 0 |
| CCN(CC)CCN(Cc1cc2ccc(C)cc2[nH]c1=O)C(=S)NC(C)c1ccccc1 (stereo not drawn) | 8.41 |
| CCOC(=O)c1cnc2c(C)cc(C)cc2c1Nc1ccc(OC)c(OC)c1 | 0 |
| N=c1ccn(CC(=O)N2CCCc3ccccc32)c2ccccc12 | 0 |
| Clc1ccc(Nc2nc(Nc3ccc(Cl)cc3)c3ccccc3n2)cc1 | 3.73 |
| OC(CNCc1ccco1)Cn1c2ccc(Cl)cc2c2cc(Cl)ccc21 (stereo not drawn) | 0 |
